{"source": "the supplement of paper PMC7335073", "note": "Whole data set: some 4,100 sequences, median “relative CpG methylation activity (normalised to average over all NNNCGNNN flanks)” near 0.94, cut for the highest 2% near 1.9. The list shows a part of the results."}
{"molecular_target": "DNMT3B catalytic domain (mouse) (UniProt O88509)", "sequence (O88509 558-859)": "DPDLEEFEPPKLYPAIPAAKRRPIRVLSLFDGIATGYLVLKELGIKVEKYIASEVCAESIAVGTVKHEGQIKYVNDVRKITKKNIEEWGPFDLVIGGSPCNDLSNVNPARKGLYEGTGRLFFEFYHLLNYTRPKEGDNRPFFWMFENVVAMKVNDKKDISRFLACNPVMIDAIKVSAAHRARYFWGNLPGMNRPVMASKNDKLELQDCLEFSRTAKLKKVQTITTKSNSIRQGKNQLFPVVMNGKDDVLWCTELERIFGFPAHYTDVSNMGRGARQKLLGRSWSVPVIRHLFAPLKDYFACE", "assay": "relative CpG methylation activity (normalised to average over all NNNCGNNN flanks) (relative (1 = mean)); higher = more methylation of the central CpG", "settings": "system: in vitro, murine catalytic domain; CpG state: hemimethylated substrate pool; residues: 558-859", "experimental": "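Deep enzymology: a pool of dsDNA substrates with a central CpG flanked by 10 random nucleotides on each side was methylated by the murine DNMT3A or DNMT3B catalytic domain (0.8 mM SAM, 37 °C, 60 min). Methylation was then read out by hairpin ligation, bisulfite conversion and NGS. Values are the average methylation of each NNNCGNNN context (±3 flanks; the outer flanks are random and averaged over), normalised to the overall mean, so 1 = average activity.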"}
{"sequence": "ATTCGGGC", "relative CpG methylation activity": 1.72}
{"sequence": "GACCGACA", "relative CpG methylation activity": 0.92}
{"sequence": "AATCGTAC", "relative CpG methylation activity": 0.777}
{"sequence": "TGTCGGTG", "relative CpG methylation activity": 1.19}
{"sequence": "GACCGAGC", "relative CpG methylation activity": 1.54}
{"sequence": "GTCCGTCA", "relative CpG methylation activity": 0.708}
{"sequence": "CAACGTAT", "relative CpG methylation activity": 1.18}
{"sequence": "CAGCGTTC", "relative CpG methylation activity": 0.595}
{"sequence": "TCACGAGT", "relative CpG methylation activity": 1.49}
{"sequence": "GTGCGAGA", "relative CpG methylation activity": 1.48}
{"sequence": "AGCCGCGT", "relative CpG methylation activity": 0.163}
{"sequence": "ATGCGGTG", "relative CpG methylation activity": 0.768}
{"sequence": "GTGCGTCA", "relative CpG methylation activity": 0.799}
{"sequence": "TAACGTAA", "relative CpG methylation activity": 0.822}
{"sequence": "ACACGCGA", "relative CpG methylation activity": 0.897}
{"sequence": "GCTCGACG", "relative CpG methylation activity": 1.17}
{"sequence": "AAACGGTT", "relative CpG methylation activity": 1.59}
{"sequence": "CCACGGGG", "relative CpG methylation activity": 1.73}
{"sequence": "TTACGTAG", "relative CpG methylation activity": 1.19}
{"sequence": "ACTCGTGG", "relative CpG methylation activity": 0.128}
{"sequence": "ATACGCTT", "relative CpG methylation activity": 1.51}
{"sequence": "TAACGGAC", "relative CpG methylation activity": 1.52}
{"sequence": "TTCCGCTA", "relative CpG methylation activity": 1.23}
{"sequence": "AAACGAAT", "relative CpG methylation activity": 1.46}
{"sequence": "GTGCGGTC", "relative CpG methylation activity": 1.18}
{"sequence": "GGTCGCTC", "relative CpG methylation activity": 0.726}
{"sequence": "AAACGTAA", "relative CpG methylation activity": 0.775}
{"sequence": "ACACGAGG", "relative CpG methylation activity": 1.64}
{"sequence": "AGTCGGGC", "relative CpG methylation activity": 1.26}
{"sequence": "TGGCGGCT", "relative CpG methylation activity": 0.825}
{"sequence": "CCCCGCAG", "relative CpG methylation activity": 0.691}
{"sequence": "ATGCGTGT", "relative CpG methylation activity": 0.375}
{"sequence": "CACCGCTC", "relative CpG methylation activity": 0.971}
{"sequence": "CGGCGTAT", "relative CpG methylation activity": 0.244}
{"sequence": "GGCCGTCA", "relative CpG methylation activity": 0.271}
{"sequence": "ACCCGGCT", "relative CpG methylation activity": 1.67}
{"sequence": "CTTCGTGA", "relative CpG methylation activity": 0.565}
{"sequence": "CAGCGGGC", "relative CpG methylation activity": 1.23}
{"sequence": "AGGCGCCA", "relative CpG methylation activity": 0.403}
{"sequence": "CAACGGCT", "relative CpG methylation activity": 1.92}
{"sequence": "TTCCGCTT", "relative CpG methylation activity": 1.11}
{"sequence": "TGTCGATT", "relative CpG methylation activity": 1.27}
{"sequence": "CTACGAGA", "relative CpG methylation activity": 1.96}
{"sequence": "TATCGGTT", "relative CpG methylation activity": 1.28}
{"sequence": "AATCGCGC", "relative CpG methylation activity": 0.663}
{"sequence": "AAACGAAA", "relative CpG methylation activity": 1.58}
{"sequence": "CGGCGGCT", "relative CpG methylation activity": 0.862}
{"sequence": "GTACGGCG", "relative CpG methylation activity": 2.05}
{"sequence": "CCTCGCTG", "relative CpG methylation activity": 0.573}
{"sequence": "CGGCGCCA", "relative CpG methylation activity": 0.538}
{"sequence": "GCCCGGTC", "relative CpG methylation activity": 1.38}
{"sequence": "GAACGGTG", "relative CpG methylation activity": 1.16}
{"sequence": "GACCGGGA", "relative CpG methylation activity": 0.885}
{"sequence": "TCTCGCCG", "relative CpG methylation activity": 0.85}
{"sequence": "TCCCGTTA", "relative CpG methylation activity": 0.532}
{"sequence": "TACCGGGA", "relative CpG methylation activity": 1.1}
{"sequence": "CGCCGACT", "relative CpG methylation activity": 1.07}
{"sequence": "GAGCGAAT", "relative CpG methylation activity": 1.01}
{"sequence": "TCTCGCGG", "relative CpG methylation activity": 0.647}
{"sequence": "AGCCGTCG", "relative CpG methylation activity": 0.254}
{"sequence": "ATCCGAAC", "relative CpG methylation activity": 1.63}
{"sequence": "CATCGCTT", "relative CpG methylation activity": 1.01}
{"sequence": "CAACGCTT", "relative CpG methylation activity": 1.18}
{"sequence": "TATCGACC", "relative CpG methylation activity": 1.45}
{"sequence": "CACCGGAT", "relative CpG methylation activity": 0.755}
{"sequence": "ATTCGTAG", "relative CpG methylation activity": 0.332}
{"sequence": "AGACGAGT", "relative CpG methylation activity": 1.68}
{"sequence": "AACCGAGA", "relative CpG methylation activity": 1.29}
{"sequence": "TTGCGCCA", "relative CpG methylation activity": 1.02}
{"sequence": "GAGCGGCG", "relative CpG methylation activity": 1.08}
{"sequence": "AGCCGAAT", "relative CpG methylation activity": 0.659}
{"sequence": "CTTCGGTG", "relative CpG methylation activity": 1.46}
{"sequence": "CTGCGTAA", "relative CpG methylation activity": 0.888}
{"sequence": "GCACGTGT", "relative CpG methylation activity": 0.344}
{"sequence": "TATCGATT", "relative CpG methylation activity": 1.84}
{"sequence": "ACGCGAGC", "relative CpG methylation activity": 1.24}
{"sequence": "TTCCGCGG", "relative CpG methylation activity": 0.777}
{"sequence": "AGGCGCCT", "relative CpG methylation activity": 0.571}
{"sequence": "CACCGGCT", "relative CpG methylation activity": 1.63}
{"sequence": "TGACGGAT", "relative CpG methylation activity": 0.829}
{"sequence": "TTGCGGTC", "relative CpG methylation activity": 1.65}
{"sequence": "CTTCGAGG", "relative CpG methylation activity": 1.65}
{"sequence": "AGACGTCC", "relative CpG methylation activity": 1.13}
{"sequence": "CACCGGGG", "relative CpG methylation activity": 0.801}
{"sequence": "AGACGAGC", "relative CpG methylation activity": 1.8}
{"sequence": "CTGCGCTA", "relative CpG methylation activity": 0.872}
{"sequence": "CAACGGGA", "relative CpG methylation activity": 1.82}
{"sequence": "TCGCGAAA", "relative CpG methylation activity": 0.764}
{"sequence": "ACACGATC", "relative CpG methylation activity": 1.75}
{"sequence": "TTTCGCTA", "relative CpG methylation activity": 1.16}
{"sequence": "GTGCGTGC", "relative CpG methylation activity": 0.743}
{"sequence": "CTCCGCAA", "relative CpG methylation activity": 0.709}
{"sequence": "CCTCGAGG", "relative CpG methylation activity": 1.6}
{"sequence": "GTCCGGAC", "relative CpG methylation activity": 1.17}
